{"source": "PubChem BioAssay AID588453", "about": "(National Center for Advancing Translational Sciences (NCATS), 2011)", "note": "Hit rate of the full screen: of about 390,000 compounds, about 4,000 (1%) were called active. The shares of active, inactive and inconclusive entries below differ from those in the screen. The call rests on the fitted dose curve; in most records, active means well fitted inhibition curve with a large enough effect; inconclusive means small, poorly fitted or top-dose-only effect; inactive means no such curve, though single readings can be large or run the other way. Potencies of inconclusive entries are doubtful fits and often do not repeat. On the % scale 0 is the no-effect control and ±100 the full control effect; potency means the concentration at half of the fitted maximal effect; tags describe the fitted curve by direction and shape.", "data": [{"biological_target": "Thioredoxin reductase 1, cytoplasmic (Rattus norvegicus) (UniProt O89049)", "sequence (O89049 whole entry, looked up)": "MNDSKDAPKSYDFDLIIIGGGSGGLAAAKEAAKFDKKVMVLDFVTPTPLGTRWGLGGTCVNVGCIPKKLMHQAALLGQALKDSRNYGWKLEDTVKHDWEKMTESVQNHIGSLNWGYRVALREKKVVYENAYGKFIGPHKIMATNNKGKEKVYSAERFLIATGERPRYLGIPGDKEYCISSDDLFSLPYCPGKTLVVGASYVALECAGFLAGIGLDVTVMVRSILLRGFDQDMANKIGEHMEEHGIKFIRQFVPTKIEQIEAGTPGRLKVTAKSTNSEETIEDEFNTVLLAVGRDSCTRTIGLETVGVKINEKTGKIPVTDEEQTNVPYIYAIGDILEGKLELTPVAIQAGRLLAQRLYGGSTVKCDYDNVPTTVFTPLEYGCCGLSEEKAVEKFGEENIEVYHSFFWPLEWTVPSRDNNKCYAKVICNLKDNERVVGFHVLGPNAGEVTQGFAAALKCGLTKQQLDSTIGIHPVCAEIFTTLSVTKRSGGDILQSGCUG", "assay": "qHTS Assay for Inhibitors of Mammalian Selenoprotein Thioredoxin Reductase 1 (TrxR1): qHTS; further: nearly all actives have a fitted effect of over 65% in size", "settings": "recombinant rTrxR1, NADPH fluorescence consumption, selenite substrate; series mostly up to 114 µM; activity change, negative = inhibition: at the top concentration", "summary_of_the_method": "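Rat TrxR1 (90 nM in the dispensed reagent) was pre-reduced with 400 uM NADPH for 5 min at room temperature, then incubated with compound for 15 min. After 400 uM selenite was added, NADPH fluorescence (Ex 340/Em 450 nm) was followed for 8 min.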", "values": [{"compound": "CN(C)CC/C=C1/c2ccccc2Sc2c(O)cc(Cl)cc21", "activity change, negative = inhibition": "inactive: 3.79% [at 57.1 µM]"}, {"compound": "O=C(O)Cn1cc(/C=C2/NC(=O)N(c3ccc(Cl)cc3)C2=O)c2ccccc21", "Potency": "inconclusive: 39.8 µM [inhibitor, single point]"}, {"compound": "CCS(=O)(=O)c1nn2c(N)c(/C=C3/C=CC(=O)C(OC)=C3)c(=O)nc2s1", "Potency": "inconclusive: 44.7 µM [inhibitor, partial curve]"}, {"compound": "CC(=O)c1cccc(NC(=S)NC(=O)Cc2ccc(Cl)cc2)c1", "Potency": "inconclusive: 50.1 µM [inhibitor, partial curve]"}, {"compound": "O=C(CCC(=O)c1ccc(Cl)cc1)OCn1nnc2ccccc2c1=O", "Potency": "inconclusive: 89.1 µM [inhibitor, single point]"}, {"compound": "Cc1ccccc1-c1noc(-c2ccc(Cl)cc2)n1", "activity change, negative = inhibition": "inactive: 20.1% [at 57.1 µM]"}, {"compound": "CCOc1ccc(-c2ncnn2-c2sc3c(c2C#N)CCCCC3)cc1", "activity change, negative = inhibition": "inactive: 3.75%"}, {"compound": "CCC(C)(C#CCN1CCCCC1)OCCC#N", "note": "(stereo not drawn)", "Potency": "inconclusive: 25.1 µM [inhibitor, partial curve, poor fit]"}, {"compound": "Oc1ccc2ccccc2c1CN1CCOCC1", "Potency": "inconclusive: 10 µM [inhibitor, full curve, poor fit]"}, {"compound": "CSc1ccccc1NC(=O)CN(C)CC(=O)c1c(C)[nH]c2ccccc12", "Potency": "inconclusive: 50.1 µM [inhibitor, partial curve, poor fit]"}, {"compound": "O=C(Nc1cccc2nsnc12)c1ccc(-c2ccc(Br)cc2)o1", "Potency": "inconclusive: 50.1 µM [inhibitor, partial curve]"}, {"compound": "CCCCC(=O)NNC(=S)NC(=O)c1ccc([N+](=O)[O-])cc1", "Potency": "inconclusive: 14.1 µM [inhibitor, full curve]"}, {"compound": "COC(=O)c1cn[nH]c1NC(=S)Nc1ccc(C)cc1Cl", "Potency": "inconclusive: 1.58 µM [inhibitor, full curve, poor fit]"}, {"compound": "CCOc1ccccc1Nc1nnc(SCc2ccc(C(=O)OC)o2)s1", "Potency": "inconclusive: 28.2 µM [inhibitor, partial curve, poor fit]"}, {"compound": "CCN(CC)CCNC(=O)c1cc(-c2ccco2)nc2ccccc12", "Potency": "inconclusive: 14.1 µM [inhibitor, partial curve]"}, {"compound": "CCOC(=O)N1CCN(C(=O)c2ccc(CSc3ccc(Cl)cc3)cc2)CC1", "activity change, negative = inhibition": "inactive: 13.6% [at 57.1 µM]"}, {"compound": "Cc1ccc(/C=c2\\sc3n(c2=O)CN(c2cccc(Br)c2)CN=3)o1", "Potency": "inconclusive: 35.5 µM [inhibitor, partial curve]"}, {"compound": "C#CCOC(=O)Nc1ccc(=O)n(Cc2c(Cl)cccc2Cl)c1", "Potency": "inconclusive: 89.1 µM [inhibitor, partial curve, poor fit]"}, {"compound": "CCC(CO)Oc1cc(NCc2cccnc2)c2ncn(C(C)C)c2c1", "note": "(stereo not drawn)", "Potency": "inconclusive: 31.6 µM [inhibitor, partial curve, poor fit]"}, {"compound": "Cc1ccc(/C=C2\\CCCC3=C2NC(=S)NC3c2ccc(C)cc2)cc1", "note": "(stereo not drawn)", "Potency": "inconclusive: 56.2 µM [inhibitor, single point]"}, {"compound": "COc1cc(-c2cc(OC)c(O)c(OC)c2)cc(OC)c1O", "Potency": "inconclusive: 63.1 µM [inhibitor, partial curve, poor fit]"}, {"compound": "O=C(COC(=O)c1nc(Cl)c(Cl)c(Cl)c1Cl)NCc1ccccc1", "Potency": "active: 44.7 µM"}, {"compound": "COc1ccccc1C1CC(c2ccco2)=NN1c1ccccc1", "note": "(stereo not drawn)", "Potency": "inconclusive: 50.1 µM [inhibitor, single point]"}, {"compound": "O=c1c(-c2ccccc2)coc2c(CN3CCOCC3)c(O)ccc12", "Potency": "inconclusive: 79.4 µM [inhibitor, single point]"}, {"compound": "O=S(OCCN1CCOCC1)C(c1ccccc1)c1ccccc1", "note": "(stereo not drawn)", "Potency": "inconclusive: 79.4 µM [inhibitor, partial curve, poor fit]"}, {"compound": "O=C(Cn1cnc([N+](=O)[O-])c1)c1ccc(Cl)cc1", "activity change, negative = inhibition": "inactive: 14.4%"}, {"compound": "COc1cccc(CC2(CO)CCCN(Cc3ccc(-c4ccco4)cc3)C2)c1", "note": "(stereo not drawn)", "Potency": "inconclusive: 17.8 µM [inhibitor, single point]"}, {"compound": "NC(N)=Nc1nc(CSCC/C(N)=N/S(N)(=O)=O)cs1", "Potency": "inactive"}, {"compound": "Cc1nn(Cc2ccccc2)c2c1C(c1cccc(Cl)c1)C(C#N)=C(N)O2", "note": "(stereo not drawn)", "Potency": "inconclusive: 44.7 µM [inhibitor, partial curve, poor fit]"}, {"compound": "CCOC(=O)C1CCCN(C(=O)c2cc(-c3ccncc3)nc3ccccc23)C1", "note": "(stereo not drawn)", "activity change, negative = inhibition": "inactive: 7.58%"}, {"compound": "O=C(c1ccco1)N1CCN(C2CC(=O)N(c3ccc(F)c(Cl)c3)C2=O)CC1", "note": "(stereo not drawn)", "Potency": "inconclusive: 28.2 µM [inhibitor, single point]"}, {"compound": "CC1=CC2=C(OC1N(C)C)c1cccc3cccc(c13)C2=O", "note": "(stereo not drawn)", "Potency": "inconclusive: 79.4 µM [inhibitor, single point]"}, {"compound": "CCOc1cc(C2C(C#N)=C(N)OC(C)=C2C(C)=O)cc(Br)c1O", "note": "(stereo not drawn)", "Potency": "inconclusive: 31.6 µM [inhibitor, partial curve]"}, {"compound": "COc1ccc(C)cc1NC(=O)c1nnn(Cc2cccc(Br)c2)c1N", "Potency": "inconclusive: 39.8 µM [inhibitor, partial curve, poor fit]"}, {"compound": "O=C(c1ccco1)N1CCN(c2nc(C3CC3)nc3sc4c(c23)CCCC4)CC1", "Potency": "inconclusive: 35.5 µM [inhibitor, single point]"}, {"compound": "CCSc1nnc(NC(=O)C(C(F)(F)F)C(F)(F)F)s1", "Potency": "inconclusive: 14.1 µM [inhibitor, full curve]"}, {"compound": "NCCNS(=O)(=O)c1cccc2cnccc12", "Potency": "inconclusive: 0.794 µM [inhibitor, full curve, poor fit]"}, {"compound": "Cc1ccc(C(=O)NC(NCc2ccccc2)C(Cl)(Cl)Cl)cc1", "note": "(stereo not drawn)", "activity change, negative = inhibition": "inactive: -15.9%"}, {"compound": "CN1/C(=C\\C(=O)C(F)F)C(C)(C)c2ccccc21", "activity change, negative = inhibition": "inactive: -3.56%"}, {"compound": "Oc1ccc(Cl)cc1C1C=C(c2ccc3c(c2)OCO3)NC(c2cc(Br)ccc2F)N1", "note": "(stereo not drawn)", "Potency": "inconclusive: 50.1 µM [inhibitor, partial curve]"}, {"compound": "CCOC(=O)C1CCN(C(=O)CCc2ccccc2)CC1", "Potency": "inconclusive: 70.8 µM [inhibitor, single point]"}, {"compound": "Cc1ccc(-c2nc3c(c(=O)c4ccccc4n3C)c(=O)n2Cc2ccco2)cc1", "Potency": "inconclusive: 14.1 µM [inhibitor, partial curve, poor fit]"}, {"compound": "CCOC(=O)N1CCN(c2cc(=O)n(C3CCCCC3)c(=O)[nH]2)CC1", "Potency": "inconclusive: 14.1 µM [inhibitor, partial curve]"}]}]}
